Target: T1, VEGFA-165 (human, UniProt P15692)
T1 chain: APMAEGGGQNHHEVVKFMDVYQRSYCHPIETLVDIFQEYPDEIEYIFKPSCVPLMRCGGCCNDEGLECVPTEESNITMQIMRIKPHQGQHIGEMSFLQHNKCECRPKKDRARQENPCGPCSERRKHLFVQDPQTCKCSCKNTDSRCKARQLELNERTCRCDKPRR
Test: SPR, 25C

B1: aflibercept (protein)
chain: SDTGRPFVEMYSEIPEIIHMTEGRELVIPCRVTSPNITVTLKKFPLDTLIPDGKRIIWDSRKGFIISNATYKEIGLLTCEATVNGHLYKTNYLTHRQTNTIIDVVLSPSHGIELSVGEKLVLNCTARTELNVGIDFNWEYPSSKHQHKKLVNRDLKTQSGSEMKKFLSTLTIDGVTRSDQGLYTCAASSGLMTKKNSTFVRVHEK[human IgG1 Fc left out here]
Work on B1 yielded a Kd of 1.56 pM.

Source: patent US20150376271 (published 2015)
